Laboratory results as given in the supplement of paper PMC9446081.
The whole screen tested about 39,000 compounds, of which about 220 (0.56%) showed activity. Some of the results follow.

tested on: Escherichia coli K-12 BW25113; experiment: relative growth (OD600 normalised to plate interquartile mean) (fraction); higher = less growth inhibition, active = 0.2 or less; settings: 50 µM; LB; incubation time: overnight (16-24 h)
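Note: static incubation at 37 °C against the wild-type strain, values averaged over two biological replicates.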

| SMILES | relative growth |
| --- | --- |
| O=C(C[C@@H]1CC[C@@H]2[C@H](COC[C@H](O)CN2C(=O)Nc2ccc(C(F)(F)F)cc2)O1)NCCc1ccncc1 | inactive: 0.988 |
| CN(C)c1cc(NC(=O)CNC(C)(C)C)c(O)c2c1C[C@H]1C[C@H]3[C@H](N(C)C)C(=O)[C@@H](C(N)=O)C(=O)[C@@]3(O)C(=O)[C@H]1C2=O | inactive: 1.01 |
| COc1cccc(NC(=O)N[C@@H]2CC[C@@H](CC(=O)N3CCOCC3)O[C@@H]2CO)c1 | inactive: 0.989 |
| C[C@@H]1CCCCO[C@H](CN(C)Cc2ccc(C(F)(F)F)cc2)[C@@H](C)CN([C@H](C)CO)C(=O)c2cc(NS(=O)(=O)c3ccc(F)cc3)ccc2O1 | inactive: 1.03 |
| C[C@@H]1CN([C@@H](C)CO)C(=O)c2cc(NC(=O)CCC(F)(F)F)ccc2O[C@@H]1CN(C)Cc1ccc(C(=O)Nc2ccccc2N)cc1 | inactive: 0.987 |
| COc1ccc(S(=O)(=O)N(C)C[C@@H]2Oc3ccc(NS(=O)(=O)c4cn(C)cn4)cc3CC(=O)N([C@@H](C)CO)C[C@H]2C)cc1 | inactive: 1.02 |
| Cc1nnc(N)s1 | inactive: 1.04 |
| O=C(C1CC1)N1CCN(c2ncccn2)CC1 | inactive: 0.991 |
| C[C@@H]1CCCCO[C@@H](CN(C)S(=O)(=O)c2cn(C)cn2)[C@@H](C)CN([C@H](C)CO)C(=O)c2cc(N(C)C)ccc2O1 | inactive: 1.02 |
| CC(=O)N(C)C[C@H]1Oc2ncc(C#C[C@@H](C)O)cc2C(=O)N([C@@H](C)CO)C[C@@H]1C | inactive: 0.991 |
| C[C@H]1CN([C@@H](C)CO)C(=O)c2cc(NC(=O)CCCCCC(=O)Nc3ccccc3N)ccc2O[C@@H]1CN(C)S(=O)(=O)c1cn(C)cn1 | inactive: 1.01 |
| C[C@H](c1cccnc1)N(C(=O)Nc1ccccc1)C1CCCCC1 | inactive: 0.939 |
| COc1ccccc1CNC(=O)C[C@H]1CC[C@@H]2[C@H](COC[C@H](O)CN2C(=O)Nc2ccc(F)cc2)O1 | inactive: 0.952 |
| C[C@H]1CN([C@@H](C)CO)C(=O)c2cc(C#Cc3cccnc3)cnc2O[C@@H]1CN(C)S(C)(=O)=O | inactive: 0.984 |
| C[C@H]1CCCCO[C@H](CN(C)C(=O)Nc2ccc(F)cc2)[C@@H](C)CN([C@@H](C)CO)C(=O)c2cc(NC(=O)c3ccccc3)ccc2O1 | inactive: 1.02 |
| C[C@@H]1CCCCO[C@H](CN(C)Cc2ccc3c(c2)OCO3)[C@@H](C)CN([C@H](C)CO)C(=O)c2cc(NC(=O)Nc3ccccc3)ccc2O1 | inactive: 1.01 |
| C[C@@H]1CN(CC(=O)N2CC(C)(C)c3nc(CO)c(Cc4ccc(F)cc4)cc32)[C@@H](CN2CCOC[C@H]2C)CN1 | inactive: 1 |
| COc1cccc(S(=O)(=O)N[C@@H]2C=C[C@H](CC(=O)NC3CCC3)O[C@@H]2CO)c1 | inactive: 0.866 |
| COc1ccc([Si](C)(C)[C@H]2[C@H](CCn3cc([C@H](O)c4ccccc4)nn3)O[C@@]3(C(=O)N(Cc4ccc(N5CCOC5=O)cc4)c4ccccc43)[C@@H]2C)cc1 | inactive: 1 |
| C[C@@H]1CN([C@@H](C)CO)C(=O)c2cc(NC(=O)Nc3ccccc3)ccc2O[C@H]1CN(C)S(=O)(=O)c1cn(C)cn1 | inactive: 0.971 |

| SMILES | relative growth |
| --- | --- |
| CCCNC(=O)N[C@@H]1CC[C@@H](CC(=O)N2CCN(C)CC2)O[C@H]1CO | inactive: 0.977 |
| C[C@@H]1CN([C@H](C)CO)C(=O)Cc2cc(NC(=O)Nc3cccc4ccccc34)ccc2O[C@@H]1CN(C)Cc1ccc(C(=O)Nc2ccccc2N)cc1 | inactive: 1.02 |
| Cc1c(N)nc([C@H](CC(N)=O)NC[C@H](N)C(N)=O)nc1C(=O)N[C@H](C(=O)N[C@H](C)[C@@H](O)[C@H](C)C(=O)N[C@H](C(=O)NCCc1nc(-c2nc(C(=O)NCCCNCCCCN)cs2)cs1)[C@@H](C)O)[C@@H](O[C@@H]1O[C@@H](CO)[C@@H](O)[C@H](O)[C@@H]1O[C@@H]1O[C@H](CO)[C@@H](O)[C@H](OC(N)=O)[C@@H]1O)c1c[nH]cn1 | active: 0.0715 |
| C[C@@H]1CCCCO[C@@H](CN(C)C(=O)Cc2ccccc2)[C@H](C)CN([C@@H](C)CO)C(=O)c2cc(NC(=O)Nc3ccc(C(F)(F)F)cc3)ccc2O1 | inactive: 1.02 |
| C[C@@H]1CN([C@@H](C)CO)C(=O)c2cc(-c3cccc(C#N)c3)cnc2O[C@H]1CN(C)C(=O)c1cnccn1 | inactive: 1.02 |
| O=C(C[C@@H]1C[C@@H]2c3cc(NS(=O)(=O)c4ccc(F)cc4)ccc3O[C@@H]2[C@H](CO)O1)NCC(F)(F)F | inactive: 1.01 |
| NNC(=O)CCCCCC(=O)NO | inactive: 1.04 |
| O=c1[nH]ncc2ccccc12 | inactive: 0.998 |
| COc1ccc2c3c(n(c2c1)C)[C@@H](CO)N(C[C@]13CCN(CC1)C(=O)c1ccncc1)C(=O)c1cnccn1 | inactive: 0.966 |
| Cc1noc(C)c1NC(=O)N(C)C[C@H]1Oc2ccc(NS(=O)(=O)c3c(C)noc3C)cc2C(=O)N([C@@H](C)CO)C[C@H]1C | inactive: 1.01 |
| CCS(=O)(=O)N1CC[C@]2(CC1)CN([C@@H](CO)c1[nH]c3cc(ccc3c12)OC)S(=O)(=O)c1cn(cn1)C | inactive: 1.03 |
| Cc1ccc(S(=O)(=O)N(C)C[C@H]2OCCCC[C@H](C)Oc3ccc(NC(=O)Nc4ccccc4)cc3C(=O)N([C@H](C)CO)C[C@@H]2C)cc1 | inactive: 1.07 |
| CNc1nc(OCC#N)nc(N2CCCCC2)n1 | inactive: 1.02 |
| CCc1nc2ccc(C(=O)NC3CCN(Cc4ccccc4)CC3)cn2c1N(C)Cc1cc2ccccc2s1 | inactive: 0.99 |
| COc1cccc(S(=O)(=O)N(C)C[C@@H]2Oc3cc(C4=CCCC4)ccc3S(=O)(=O)N([C@H](C)CO)C[C@H]2C)c1 | inactive: 1.04 |
| C[C@H](CO)N1C[C@H](C)[C@H](CN(C)S(=O)(=O)c2ccccc2)OCCCC[C@H](C)Oc2ccc(NS(C)(=O)=O)cc2C1=O | inactive: 1.01 |
| CCCCC/C=C\C/C=C\CCCCCCCCCC(=O)O | inactive: 0.989 |
| C[C@H]1O[C@@H](O[C@H]2[C@@H](O)[C@@H](O)[C@@H](O[C@H]3CC[C@]4(C)[C@H]5CC=C6[C@H]7CC(C)(C)[C@H]8C[C@]7(C(=O)O8)[C@@H](O)C[C@]6(C)[C@@]5(C)CC[C@H]4C3(C)C)O[C@@H]2CO)[C@@H](O)[C@@H](O[C@H]2OC[C@@H](O)[C@@H](O)[C@@H]2O)[C@@H]1O | inactive: 1 |
| C[C@@H]1CCCCO[C@H](CN(C)Cc2ccc(Cl)c(Cl)c2)[C@@H](C)CN([C@@H](C)CO)C(=O)c2cc(NS(C)(=O)=O)ccc2O1 | inactive: 0.996 |
| C[C@H](CO)N1C[C@H](C)[C@H](CN(C)Cc2ccc(C(=O)Nc3ccccc3N)cc2)Oc2c(NC(=O)c3nc4ccccc4s3)cccc2C1=O | inactive: 1.03 |

| SMILES | relative growth |
| --- | --- |
| C=c1cc(C)ccc1=C1NN=C(NC(=O)CC)O1 | inactive: 0.989 |
| CO[C@H]1CN(C)C(=O)c2cc(NS(=O)(=O)c3cn(C)cn3)ccc2OC[C@H](C)N(Cc2cccc(F)c2)C[C@H]1C | inactive: 0.984 |
| NCCONC(=O)[C@@H]1CC[C@@H]2CN1C(=O)N2OS(=O)(=O)O | active: 0.0923 |
| COc1ccc(CN2C[C@H](C)[C@@H](OC)CN(C)C(=O)c3cc(NC(=O)c4nc5ccccc5s4)ccc3OC[C@H]2C)cc1 | inactive: 1.01 |
| O=C(C[C@@H]1C[C@@H]2c3cc(NS(=O)(=O)c4ccc(F)cc4)ccc3O[C@@H]2[C@H](CO)O1)NCc1cccnc1 | inactive: 1.01 |
| C[C@H]1CN([C@@H](C)CO)C(=O)c2cc(C#Cc3ccccn3)cnc2O[C@H]1CN(C)C(=O)c1cnccn1 | inactive: 1 |
| COCC(=O)N1C[C@H](C)[C@H](OC)CN(C)C(=O)c2ccc(NC(=O)c3ccc(F)cc3)cc2OC[C@@H]1C | inactive: 0.986 |
| C[C@H](CO)N1C[C@H](C)[C@@H](CN(C)S(=O)(=O)c2ccc(F)cc2)Oc2ncc(-c3cccc(C(=O)N(C)C)c3)cc2C1=O | inactive: 0.967 |
| C[C@H]1CN([C@@H](C)CO)C(=O)Cc2cc(NS(C)(=O)=O)ccc2O[C@@H]1CN(C)C(=O)Nc1ccc(C(F)(F)F)cc1 | inactive: 0.952 |
| CN(C)CC(=O)N[C@H]1C=C[C@@H](CC(=O)NCCN2CCCCC2)O[C@@H]1CO | inactive: 0.986 |
| CC(C)NC(=O)N(C)C[C@@H]1Oc2ccc(NC(=O)CCN3CCOCC3)cc2C(=O)N([C@@H](C)CO)C[C@H]1C | inactive: 0.996 |
| CCCn1cnnc1[C@@H](C)N | inactive: 1.01 |
| Cc1noc(C)c1NC(=O)Nc1ccc2c(c1)C(=O)N([C@@H](C)CO)C[C@H](C)[C@H](CN(C)Cc1ccc(Cl)c(Cl)c1)O2 | inactive: 0.996 |
| COCC#Cc1ccc2c(c1)O[C@@H](CN(C)S(=O)(=O)c1ccc(C)cc1)[C@@H](C)CN([C@H](C)CO)S2(=O)=O | inactive: 1.02 |
| C/C=C/c1cnc2c(c1)C(=O)N([C@@H](C)CO)C[C@H](C)[C@@H](CN(C)S(=O)(=O)c1ccc(OC)cc1)O2 | inactive: 1.03 |
| COc1ccc(S(=O)(=O)N(C)C[C@H]2Oc3ccc(NC(=O)Nc4c(C)noc4C)cc3CC(=O)N([C@H](C)CO)C[C@H]2C)cc1 | inactive: 1.02 |
| C[C@@H]1CN([C@H](C)CO)C(=O)c2cccc(NC(=O)Nc3ccccc3)c2O[C@H]1CN(C)Cc1ccc(C(=O)Nc2ccccc2N)cc1 | inactive: 0.957 |
| CC(C)C[C@@H]1NC(=O)[C@H]2C[C@@H](C(=O)NCCCCCC[N+](C)(C)C)[C@@H](c3cccc(OCCO)c3)N2C1=O | inactive: 0.998 |
